From ChEMBL document CHEMBL5606458, “ASAP - ZIKV NS2B-NS3 protease fluorescence single point” (2024) come the findings set out here.

The campaign covered roughly 2,700 compounds. About 160 (5.9%) showed an effect of 50% or more. Some of the results follow.

The assay addresses Nonstructural protein 3 (Zika virus) (UniProt A0A024AXB9).
The mark [1] stands for this setting: PRVABC59, Concentration 15.0 uM, Number of replicates 1.0.
The mark [2] stands for this setting: PRVABC59, Concentration 50.0 uM, Number of replicates 1.0.

Chain of UniProt A0A024AXB9 (A0A024AXB9 as listed by the source): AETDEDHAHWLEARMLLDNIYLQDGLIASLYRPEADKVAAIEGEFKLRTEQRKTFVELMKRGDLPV

The inhibition is the relative decrease from the control value, in per cent. As to `CN(Cc1ccc(Cl)cc1)C(=O)c1cc(Cl)ccc1NS(=O)(=O)c1ccc(Oc2ccccc2Cl)cc1`, the inhibition under setting [1] worked out at 31.9%. For `O=Cc1ccc(N2CCC(C(=O)NC3C4CC5CC(C4)CC3C5)CC2)cc1` (centres undefined), the inhibition under setting [2] was -2.57%.

Consider `COC(=O)c1ccc(F)c(Cn2ncc(C3CCNCC3)c2C)c1`, for which the inhibition by setting is: (PRVABC59, Concentration 49.5 uM, Number of replicates 2.0, Standard deviation 3.4042226177050456 %) 1.17%; (PRVABC59, Concentration 99.01 uM, Number of replicates 2.0, Standard deviation 3.3683349133728075 %) 3.29%; (PRVABC59, Concentration 198.0 uM, Number of replicates 2.0, Standard deviation 3.1119928074014256 %) 8.25%.

Consider `O=C(Nc1cnn(-c2ccccc2)c(=O)c1Cl)c1cc(Cl)ccc1NS(=O)(=O)c1ccc(Oc2ccccc2Cl)cc1`, for which the inhibition under setting [1] amounted to 22%. Consider `O=Cc1ccc(N2CCC(C(=O)Nc3ccccc3Oc3ccccc3)CC2)cc1`, for which, under setting [2], the inhibition was 24.4%. On to `O=Cc1ccc(N2CCC(C(=O)Nc3ccccc3Sc3ccccc3)CC2)cc1`, for which the inhibition under setting [2] was 23.7%.

As to `CC(C)CCN(CCC(C)C)C(=O)C1CCN(c2ccc(C=O)cc2)CC1`, the inhibition under setting [2] stood at 25.1%. Regarding `Cc1cc(CO)c2cccc(Cc3cccc(C(=O)Nc4cccc(C(N)=O)c4)c3)c2n1`, the inhibition by setting is: (PRVABC59, Concentration 49.95 uM, Number of replicates 2.0, Standard deviation 0.1992514179713741 %) -3.36%; (PRVABC59, Concentration 99.9 uM, Number of replicates 2.0, Standard deviation 0.4299637092619174 %) -0.56%.

For the molecule `Cc1ccc(NC(=O)c2cc(Cl)ccc2NS(=O)(=O)c2ccc(Oc3ccccc3Cl)cc2)cc1Br`, the inhibition under setting [1] is 43.3%.

Regarding `CC(C)(C)OC(=O)NC1CN(C(=O)c2cc(Cl)ccc2NS(=O)(=O)c2ccc(Oc3ccccc3Cl)cc2)C1`, the inhibition under setting [1] worked out at 0.402%. With `CCOC(=O)[C@H]1CCCN(C(=O)C2CCN(c3ccc(C=O)cc3)CC2)C1`, the inhibition under setting [2] is 23.3%. On the same count and under the same terms, for `Cc1ccc([N+](=O)[O-])c(NC(=O)C2CCN(c3ccc(C=O)cc3)CC2)c1` the value was 22.9%.

Take `C[C@@H]1CN(CCNC(=O)c2cc(Cl)ccc2NS(=O)(=O)c2ccc(Oc3ccccc3Cl)cc2)C[C@H](C)O1`: under setting [1], the inhibition came out at 23.9%. Consider `N#Cc1cccc(NC(=O)c2cccc(OCc3c(Cl)cccc3Cl)c2)c1`, for which the inhibition amounted to 6.21% (PRVABC59, Concentration 49.5 uM, Number of replicates 2.0, Standard deviation 1.7651619405536074 %); 10% (PRVABC59, Concentration 99.01 uM, Number of replicates 2.0, Standard deviation 1.834624667346594 %); 8.42% (PRVABC59, Concentration 198.0 uM, Number of replicates 2.0, Standard deviation 2.6293560952864428 %). Consider `Cc1cnccc1NC(=O)c1cncc(S(C)(=O)=O)c1`, for which the inhibition is, setting by setting: (PRVABC59, Concentration 49.5 uM, Number of replicates 2.0, Standard deviation 1.0745033884669215 %) 2.26%; (PRVABC59, Concentration 99.01 uM, Number of replicates 2.0, Standard deviation 1.8668367871670457 %) 2%; (PRVABC59, Concentration 198.0 uM, Number of replicates 2.0, Standard deviation 1.5508062721876872 %) 3.36%. Take `O=Cc1ccc(N2CCC(C(=O)N3CCN(c4ccc(Br)cn4)CC3)CC2)cc1`: under setting [2], the inhibition was determined as 0.176%. On to `CC(C)CC(=O)N1CCC(NC(=O)c2cc(Cl)ccc2NS(=O)(=O)c2ccc(Oc3ccccc3Cl)cc2)CC1`, for which, under setting [1], the inhibition turned out to be 7.39%. As to `O=C1NCCN(S(=O)(=O)c2ccc(Oc3ccccc3Cl)cc2)c2cc(F)c(F)cc21`, the inhibition (PRVABC59, Concentration 49.5 uM, Number of replicates 2.0, Standard deviation 2.191742501212131 %) is -2.08%; the inhibition (PRVABC59, Concentration 99.01 uM, Number of replicates 2.0, Standard deviation 1.8575848321541237 %) came to 1.42%; the inhibition (PRVABC59, Concentration 198.0 uM, Number of replicates 2.0, Standard deviation 0.35283723134337663 %) amounted to 5.56%. With `O=C(OCc1ccccc1)N1CCN(C(=O)c2cc(Cl)ccc2NS(=O)(=O)c2ccc(Oc3ccccc3Cl)cc2)CC1`, the inhibition under setting [1] amounted to 19.4%. As for `CC(C)CN1CC[C@H](CNC(=O)C2CCN(c3ccc(C=O)cc3)CC2)C1`, the inhibition under setting [2] is 26.2%.

On to `CN(Cc1nc2ccccc2n1C)C(=O)C1CCN(c2ccc(C=O)cc2)CC1`, for which, under setting [2], the inhibition is 21.6%. Consider `O=Cc1ccc(N2CCC(C(=O)NCCOc3ccccc3Cl)CC2)cc1`, for which the inhibition under setting [2] worked out at 24.9%. Regarding `O=C1c2c(O)ccc([N+](=O)[O-])c2C(=O)c2c([N+](=O)[O-])ccc(O)c21`, under “PRVABC59, Concentration 100.0 uM, Number of replicates 2.0, Standard deviation 11.038302783376022 %”, the inhibition turned out to be 30.6%. On to `O=Cc1ccc(N2CCC(C(=O)Nc3c(Br)cncc3[N+](=O)[O-])CC2)cc1`, for which the inhibition under setting [2] was found to be 22.5%. As for `CN(C(=O)C1CCN(c2ccc(C=O)cc2)CC1)[C@H]1CS(=O)(=O)C[C@@H]1O`, the inhibition under setting [2] was 20.9%. Consider `COc1cc2c(cc1OC)C(=O)[C@@H](CC1CCN(C(=O)c3cc(Cl)ccc3NS(=O)(=O)c3ccc(Oc4ccccc4Cl)cc3)CC1)C2`, for which, under setting [1], the inhibition came out at 0.527%. `Cc1cc(Br)cc(NC(=O)C2CCN(c3ccc(C=O)cc3)CC2)c1`: the inhibition under setting [2] stood at 28.7%. On to `O=C(Nc1ccc(OCc2ccccc2)cc1)c1cc(Cl)ccc1NS(=O)(=O)c1ccc(Oc2ccccc2Cl)cc1`, for which the inhibition under setting [1] turned out to be 29.8%.

Take `CCN(Cc1cc(Br)ccc1F)C(=O)C1CCN(c2ccc(C=O)cc2)CC1`: under setting [2], the inhibition came out at 26.9%. Consider `O=Cc1ccc(N2CCC(C(=O)NC3CCN(CC(=O)NC4CC4)CC3)CC2)cc1`, for which the inhibition under setting [2] came to 27.4%. Consider `c1ccc2c([C@H]3CCN(Cc4cocn4)C3)c[nH]c2c1`, for which the inhibition came to 5.41% (PRVABC59, Concentration 49.5 uM, Number of replicates 2.0, Standard deviation 2.680092134349069 %); 4.89% (PRVABC59, Concentration 99.01 uM, Number of replicates 2.0, Standard deviation 6.827048554046504 %); 3.45% (PRVABC59, Concentration 198.0 uM, Number of replicates 2.0, Standard deviation 1.5027961226993516 %). In the case of `Cc1cc(CO)c2cccc(NC(=O)[C@@H]3C[C@@H](O)CN3)c2n1`, the inhibition (PRVABC59, Concentration 49.95 uM, Number of replicates 2.0, Standard deviation 2.1728568355691875 %) was determined as 17% and the inhibition (PRVABC59, Concentration 99.9 uM, Number of replicates 2.0, Standard deviation 5.153634365263829 %) was 23.7%. Turning to `O=C(NCc1cccc(-c2ccccc2)c1)c1cc(Cl)ccc1NS(=O)(=O)c1ccc(Oc2ccccc2Cl)cc1`, under setting [1], the inhibition was 54.4%. Consider `CC(C)(CO)NC(=O)c1cc(Cl)cc(NC(=O)c2cc(S(N)(=O)=O)c[nH]2)c1`, for which the inhibition (PRVABC59, Concentration 49.5 uM, Number of replicates 2.0, Standard deviation 1.280968155267238 %) was -4.22%; the inhibition (PRVABC59, Concentration 99.01 uM, Number of replicates 2.0, Standard deviation 2.813227285299221 %) was -4.14%; the inhibition (PRVABC59, Concentration 198.0 uM, Number of replicates 2.0, Standard deviation 3.346453070416073 %) was -2.91%.

As to `Cc1cc(C)n(CCCNC(=O)c2cc(Cl)ccc2NS(=O)(=O)c2ccc(Oc3ccccc3Cl)cc2)n1`, the inhibition under setting [1] turned out to be 19.9%. Take `O=Cc1ccc(N2CCC(C(=O)NCC[C@H](O)c3ccccc3)CC2)cc1`: the inhibition under setting [2] was 21.8%.

Regarding `O=C(c1cc2ccccc2[nH]1)N1CC[C@H](n2cnc3ccccc32)C1`, the inhibition was 2.94% (PRVABC59, Concentration 49.5 uM, Number of replicates 2.0, Standard deviation 3.2229539112941175 %); 7.06% (PRVABC59, Concentration 99.01 uM, Number of replicates 2.0, Standard deviation 2.038958995248382 %); 11.6% (PRVABC59, Concentration 198.0 uM, Number of replicates 2.0, Standard deviation 1.6347939830892861 %). For the molecule `O=C(c1cc(Cl)ccc1NS(=O)(=O)c1ccc(Oc2ccccc2Cl)cc1)N1CCc2ccccc2[C@H]1c1ccccc1`, the inhibition under setting [1] stood at 33.2%. For the molecule `C[C@H]1CN(C(=O)C2CCN(c3ccc(C=O)cc3)CC2)CCN1C(=O)OC(C)(C)C`, the inhibition under setting [2] is 20.3%. Turning to `O=Cc1ccc(N2CCC(C(=O)NCc3c(F)cccc3C(F)(F)F)CC2)cc1`, the inhibition (PRVABC59, Concentration 10.0 uM, Number of replicates 1.0) is 26.7%. As for `N[C@@H](Cc1ccc2ccccc2n1)C(=O)O`, the inhibition (PRVABC59, Concentration 49.95 uM, Number of replicates 2.0, Standard deviation 2.5640517451549347 %) is -7.74% and the inhibition (PRVABC59, Concentration 99.9 uM, Number of replicates 2.0, Standard deviation 2.076409673310798 %) is -7.38%. `Cc1cc(CO)c2cccc(Cc3ccccc3NC(=O)c3cnn(Cc4c(C)noc4C)c3)c2n1`: the inhibition is, setting by setting: (PRVABC59, Concentration 49.95 uM, Number of replicates 2.0, Standard deviation 1.0688290739582027 %) 0.076%; (PRVABC59, Concentration 99.9 uM, Number of replicates 2.0, Standard deviation 1.8577267037145675 %) 3.25%. Take `O=C1C[C@@H](NS(=O)(=O)c2ccc(Oc3ccccc3Cl)cc2)CCN1`: the inhibition is, setting by setting: (PRVABC59, Concentration 49.5 uM, Number of replicates 2.0, Standard deviation 3.5340016994019727 %) -4.3%; (PRVABC59, Concentration 99.01 uM, Number of replicates 2.0, Standard deviation 1.221682206515692 %) 3.33%; (PRVABC59, Concentration 198.0 uM, Number of replicates 2.0, Standard deviation 6.237343299795106 %) 6.53%. For the molecule `O=C(Nc1c(F)cccc1Br)c1cc(Cl)ccc1NS(=O)(=O)c1ccc(Oc2ccccc2Cl)cc1`, the inhibition under setting [1] was found to be 28.6%.
